Data taken from PubChem BioAssay AID1347071 (National Center for Advancing Translational Sciences (NCATS), 2019).
In all, about 410,000 compounds went through this assay and about 260 (0.063%) were called active. The shares of active, inactive and inconclusive entries below differ from those in the screen. Calls come from the whole dose curve; as a rule, active = well fitted activation curve with a large enough effect; inconclusive = small, poorly fitted or top-dose-only effect; inactive = no such curve, though single readings can be large or run the other way. Potencies of inconclusive entries are left out as doubtful fits.

assay: qHTS for compounds that reverse cellular toxicity of Amyloid beta (A-beta) peptide in yeast: Primary Screen; details: yeast expressing A-beta42, growth rescue, OD600, 48 h; growth rescue: at 46.1 µM (top of the series), 0% DMSO, 100% iron-clioquinol control; note: nearly all actives have a fitted effect of over 55% in size
Outline: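 Yeast growth medium received pinned compounds, then yeast cells expressing toxic A-beta were added; plates incubated at 30 C for 48 hr. Growth read as absorbance at 600 nm, normalized to DMSO and equimolar FeCl3 plus clioquinol controls.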
Potency is the fitted concentration of half-maximal effect; tags give direction and shape of the fitted curve.

Question: With `Cc1ccc(S(=O)(=O)Oc2ccc3ccc(O)cc3c2)cc1` as the molecule, how does the Potency read?
Answer: inconclusive [activator, single point]

Question: Which growth rescue does the source give for `CSC1=NC=C(C#N)C2=NC(c3c(Cl)cccc3Cl)NN12` (configuration not stated) here?
Answer: inconclusive: -29.6% [activator]

Question: For `COc1ccc(S(=O)(=O)N2CCNCC2)cc1`, which Potency is on record?
Answer: inconclusive [activator, single point]

Question: With `O=C1CC(c2ccccc2)CN1S(=O)(=O)c1ccccc1` (configuration not stated) as the molecule, how does the growth rescue read?
Answer: inconclusive: 49.2% [activator]

Question: Which Potency does the source give for `Cc1ccc(NC(=O)Cc2ccc(-c3ccccc3)cc2)nc1` here?
Answer: inconclusive [activator, partial curve, poor fit]

Question: For `Cc1ccc(C)c(N2CCN(C(=O)CCC(=O)N3CCOc4ccc(Cl)cc43)CC2)c1`, which Potency is on record?
Answer: inconclusive [activator, single point]

Question: Which Potency does the source give for `COc1cccc(C(CC(=O)NCC2CCCO2)NS(=O)(=O)c2ccc(C)cc2)c1OC` (configuration not stated) here?
Answer: inconclusive [activator, partial curve, poor fit]

Question: Which “growth rescue” value does the source give for `CCn1cc(C(=O)NCCCOC)c(=O)c2cc(S(=O)(=O)N3CCc4ccccc4C3)ccc21` here?
Answer: inactive: -7.91%

Question: With `Cc1cc(C)c2oc(-c3ccc(Cl)c(NC(=O)c4cccs4)c3)nc2c1` as the molecule, how does the “growth rescue” value read?
Answer: inactive: -20.2%

Question: For `CC(C)(C)c1cc(NS(=O)(=O)c2cccs2)no1`, which Potency is on record?
Answer: inconclusive [activator, partial curve]

Question: For `CCn1nc(CC(=O)Nc2ccc(-n3cnnn3)c(OC)c2)c2ccccc2c1=O`, which Potency is on record?
Answer: inconclusive [activator, single point]

Question: With `C=C(C)CNC(=S)N/N=C/c1ccco1` as the molecule, how does the Potency read?
Answer: inconclusive [activator, partial curve, poor fit]

Question: For `Cc1ccc(S(=O)(=O)NCC2CCCO2)cc1[N+](=O)[O-]` (configuration not stated), which Potency is on record?
Answer: inconclusive [activator, full curve, poor fit]

Question: With `CN1C(=O)c2ccccc2Sc2ccc(NC(=O)N3CCN(c4ccccc4)CC3)cc21` as the molecule, how does the “growth rescue” value read?
Answer: inactive: -8.16%

Question: For `COc1ccccc1CNCC(O)(c1ccc(Cl)cc1)c1ccc(Cl)cc1`, which Potency is on record?
Answer: inconclusive [activator, partial curve]

Question: For `Cc1ccc2nc(-c3ccccc3Cl)cc(C(=O)Nc3cc(C)on3)c2c1`, which “growth rescue” value is on record?
Answer: inactive: -23.3%

Question: For `COCCNC(=S)N/N=C/c1ccc2c(c1)OCCO2`, which Potency is on record?
Answer: inconclusive [activator, single point]

Question: Which Potency does the source give for `O=C1OCCN1C(=O)[C@H]1[C@H](c2ccc(Cl)cc2)C(c2ccc(F)cc2)=NN1c1ccccc1` here?
Answer: inconclusive [activator, full curve, poor fit]

Question: For `O=C(O)c1ccccc1/C=N/NC(=S)NC1CCCCC1`, which Potency is on record?
Answer: inconclusive [activator, single point]

Question: With `COc1ccc(OC)c(S(=O)(=O)Nc2ccccc2SC)c1` as the molecule, how does the Potency read?
Answer: inconclusive [activator, single point]

Question: Which “growth rescue” value does the source give for `CC1(C)Cc2c(cnn2-c2ccccc2)-c2c1c1ccccc1n2CC(O)CCl` (configuration not stated) here?
Answer: inactive: 3.32%

Question: Which Potency does the source give for `CCNC(=S)N=Nc1c(O)n(Cc2ccc(Cl)cc2)c2ccccc12` here?
Answer: inconclusive [activator, partial curve, poor fit]

Question: With `CCc1cccc(NC(=O)c2cnc(N3CCOCC3)c3ccccc23)c1` as the molecule, how does the Potency read?
Answer: inconclusive [activator, partial curve]

Question: With `O=C(COC(=O)CCSc1ccccc1)Nc1ccccc1Br` as the molecule, how does the Potency read?
Answer: inconclusive [activator, single point]

Question: For `Cc1ccc(S(=O)(=O)N2CCCCC2c2cccnc2)c(C)c1C` (configuration not stated), which Potency is on record?
Answer: inconclusive [activator, partial curve, poor fit]

Question: With `CS(=O)(=O)c1ccc(Cl)c(NC(=O)COC(=O)C23CC4CC(CC(C4)C2)C3)c1` as the molecule, how does the Potency read?
Answer: inconclusive [activator, partial curve, poor fit]

Question: With `COc1ccc(-c2nc(-n3c(C)c(C(C)=O)c(C(C)=O)c3C)sc2C)cc1OC` as the molecule, how does the “growth rescue” value read?
Answer: inactive: 9.46%

Question: Which “growth rescue” value does the source give for `CC(=O)Nc1ccc(C2=CC(=O)C[C@H](c3ccc4c(c3)OCO4)C2)cc1` here?
Answer: inactive: 15.5%

Question: Which Potency does the source give for `CCc1ccc(NC(=O)Cn2c(=O)c3cccn3c3ccccc32)cc1` here?
Answer: inactive

Question: For `O=[N+]([O-])c1ccc(CNc2ccc(F)cc2)s1`, which Potency is on record?
Answer: inconclusive [activator, full curve, poor fit]

Question: For `CCN(CC)S(=O)(=O)c1ccc2c(c1)N(CC(=O)N1CCN(c3cccc(C)c3)C(C)C1)C(=O)CO2` (configuration not stated), which Potency is on record?
Answer: inconclusive [activator, single point]

Question: Which Potency does the source give for `CC1(CNC(=O)C(=O)NCC2(C)CO2)CO1` (configuration not stated) here?
Answer: inconclusive [activator, partial curve]

Question: With `O=C(CSc1nc2ccc(NC(=O)CSc3nnnn3Cc3ccccc3)cc2s1)Nc1ccccc1` as the molecule, how does the Potency read?
Answer: inconclusive [activator, full curve, poor fit]

Question: For `COc1ccc(NC(=O)Cn2c(=O)n(CCCC(=O)NCc3ccccc3Cl)c(=O)c3ccccc32)c(OC)c1`, which “growth rescue” value is on record?
Answer: inactive: -12.7%

Question: With `S=c1[nH]nc(-c2ccco2)n1/N=C/C(Cl)=C/c1ccccc1` as the molecule, how does the Potency read?
Answer: inconclusive [activator, single point]

Question: For `CC(C)(C)c1ccc(-c2noc(C(=O)NN)n2)cc1`, which Potency is on record?
Answer: inconclusive [activator, single point]

Question: With `CCCCCC(=O)NC(=S)NNC(=O)c1ccc([N+](=O)[O-])cc1` as the molecule, how does the Potency read?
Answer: inconclusive [activator, single point]

Question: For `CCn1ncc(Br)c1C(=O)Nc1sc2c(c1C(N)=O)CCC2`, which “growth rescue” value is on record?
Answer: inactive: -12%

Question: With `Cc1ccc(NC(=O)CN2C(=O)C(c3ccccc3)=NC23CCCCC3)cc1C` as the molecule, how does the Potency read?
Answer: inconclusive [activator, partial curve, poor fit]

Question: With `O=C(Nc1cnn(Cc2ccc(Cl)cc2Cl)c1)c1noc2c1CCCC2` as the molecule, how does the Potency read?
Answer: inconclusive [activator, partial curve, poor fit]

Question: With `CC1CCc2nn(CC(=O)NCCC3=CCCCC3)cc2C1` (configuration not stated) as the molecule, how does the Potency read?
Answer: inconclusive [activator, single point]

Question: Which Potency does the source give for `Oc1ccc(Br)cc1-c1cc(-c2ccccc2)n[nH]1` here?
Answer: inconclusive [activator, full curve]

Question: For `Fc1ccc(NC(=S)N2N=CCC2c2ccccc2)cc1` (configuration not stated), which Potency is on record?
Answer: inconclusive [activator, single point]

Question: Which “growth rescue” value does the source give for `COc1ccc(S(=O)(=O)N(C)CC(=O)NCc2ccccc2)cc1OC` here?
Answer: inactive: 0.426%

Question: Which Potency does the source give for `Cc1ccc(N(CC(=O)N/N=C/c2cccs2)S(C)(=O)=O)cc1` here?
Answer: inconclusive [activator, full curve, poor fit]

Question: Which “growth rescue” value does the source give for `CC(=O)N1CCN(CCS(=O)(=O)c2cc(Cl)ccc2Cl)CC1` here?
Answer: inactive: -46.3%

Question: For `Cc1ccc(-c2nnc(NC(=O)c3ccco3)s2)cc1`, which “growth rescue” value is on record?
Answer: inactive: -10.1%

Question: For `C/C(=N\NC(=S)NC1CCCCC1)c1ccc(C)o1`, which Potency is on record?
Answer: inconclusive [activator, partial curve, poor fit]

Question: For `CSC(=S)N/N=C(\C)c1ccccc1`, which Potency is on record?
Answer: inconclusive [activator, single point]

Question: Which Potency does the source give for `CC(C)Oc1ccc(/C=N/NC(N)=S)cc1` here?
Answer: inconclusive [activator, single point]

Question: For `Fc1ccc(-c2c[nH]c(=S)n2Cc2ccccc2)cc1`, which Potency is on record?
Answer: inconclusive [activator, partial curve, poor fit]

Question: With `CCN(CCO)c1ncnc2c1sc1nc(C(C)C)c3c(c12)CC(C)(C)OC3` as the molecule, how does the “growth rescue” value read?
Answer: inactive: 14.6%

Question: Which Potency does the source give for `Cc1ccc2c(CC(=O)Nc3nc(C)cs3)coc2c1` here?
Answer: inconclusive [activator, full curve]

Question: With `Cc1cnc(NC(=O)Nc2ccc(Cl)cc2)s1` as the molecule, how does the Potency read?
Answer: inconclusive [activator, partial curve]

Question: With `COc1ccc(Cc2nc3ccc(C(=O)N(C)Cc4cc(C)[nH]n4)cc3o2)cc1OC` as the molecule, how does the “growth rescue” value read?
Answer: inactive: 0.112%

Question: Which Potency does the source give for `COc1ccc([C@H]2CC(=O)C=C(c3cc(C)ccc3F)C2)cc1` here?
Answer: inconclusive [activator, single point]

Question: With `CCC1CN(C(=O)N2CCC(C(=O)NCCCc3ccccc3)CC2)c2cc(C)ccc2O1` (configuration not stated) as the molecule, how does the Potency read?
Answer: inconclusive [activator, single point]

Question: With `N#Cc1ccc(-c2ccc(OCC(=O)NCCc3ccccc3)cc2)cc1` as the molecule, how does the Potency read?
Answer: inconclusive [activator, partial curve, poor fit]

Question: For `COCCN1C(=O)c2oc3cc(C)c(C)cc3c(=O)c2C1c1ccc(O)cc1` (configuration not stated), which Potency is on record?
Answer: inconclusive [activator, full curve]

Question: With `Cc1ccc(NC(=O)Cn2c(=O)n(CCC(=O)N3CCc4ccccc4C3)c(=O)c3ccccc32)c(C)c1` as the molecule, how does the “growth rescue” value read?
Answer: inactive: -9.73%

Question: For `Cc1[nH]c2ccccc2c1C1C(c2ccccc2)=NN=C(C(C)C)N1O` (configuration not stated), which Potency is on record?
Answer: inconclusive [activator, partial curve]

Question: With `C/C(CCC(C)C)=N\NS(=O)(=O)c1ccc(C)c([N+](=O)[O-])c1` as the molecule, how does the Potency read?
Answer: inconclusive [activator, partial curve, poor fit]

Question: Which Potency does the source give for `CCOC(=O)CNC(=O)C1CCCc2c1[nH]c1ccc(Cl)cc21` (configuration not stated) here?
Answer: inconclusive [activator, partial curve, poor fit]

Question: For `COc1cc(OC)c2c(-c3cccc(-c4ccc(NC(C)=O)cc4)c3)cc(=O)oc2c1`, which “growth rescue” value is on record?
Answer: inactive: -31.6%

Question: Which Potency does the source give for `N=c1sccn1CC(=O)Nc1ccc(S(N)(=O)=O)cc1` here?
Answer: inconclusive [activator, single point]

Question: For `CCOc1ccc(NC(=O)c2ccc(NC(=O)c3ccc(CN4CCOCC4)cc3)cc2)cc1`, which Potency is on record?
Answer: inconclusive [activator, single point]

Question: For `COc1ccc2oc(=O)c(C(=O)OCc3ccccc3)cc2c1`, which “growth rescue” value is on record?
Answer: inactive: -11.6%
